Reference: the supplement of paper PMC10369915
This is one part of the list. No stated cut-off is given here; in the data, active = 3.2 or more and inactive = the rest. Most of these values are background signal.
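Further: displayed peptides selected on beads carrying the immobilized SH2 domain, with library peptides lacking any tyrosine serving as negative controls.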

These binders were tested against SHP2 C-SH2 domain E139D (assay: enrichment score (SH2-bound / input frequency) (ratio); bacterial display of known human phosphotyrosine sites (pTyr-Var adds point mutants) read by sequencing; higher = stronger binding; tyrosines were phosphorylated by kinases first). Settings: peptide library: pTyr-Var.
In the case of NVDGKYSYLKV [GRM3_Y478_G475D], the enrichment score is reported as inactive: 0.869. With NVDGKYSFLKV [GRM3_Y478_G475D_YF] the enrichment score was inactive: 0.825. DGKYSYLKVGH [GRM3_Y480_G475D] was tested, and the enrichment score was inactive: 0.681. DGKFSYLKVGH [GRM3_Y480_G475D_YF] was tested, and the enrichment score was inactive: 0.905. For LTPVKYLLSAT [GSDMC_Y26], the enrichment score was inactive: 1.33. For EKRDAYVSRLN [GSR_Y150], the enrichment score was inactive: 0.693. EKRDAYVSCLN [GSR_Y150_R153C] was tested, and the enrichment score was inactive: 0.827. With YFRDGCMPRQY [GSS_Y270_Y270C] the enrichment score was inactive: 0.647. In the case of FFRDGCMPRQF [GSS_Y270_Y270C_YF], the enrichment score is reported as inactive: 0.875. In the case of FFRDGHMPRQF [GSS_Y270_Y270H_YF], the enrichment score is reported as inactive: 0.843. For SHGQDYLVGNK [GSTA1_Y147], the enrichment score was inactive: 0.629. For SHGQDYLAGNK [GSTA2_Y147_V149A], the enrichment score was inactive: 0.598. With RALLNYIASKY [GSTA3_Y74_I71L] the enrichment score was inactive: 1.35. RAILDYIASKY [GSTA3_Y74_N73D] was tested, and the enrichment score was inactive: 1.31. With RAILNYIASKF [GSTA3_Y74_YF] the enrichment score was inactive: 0.638. In the case of QNKEDYAGLKE [GSTO1_Y139], the enrichment score is reported as inactive: 0.422. With QNKEDYDGLKE [GSTO1_Y139_A140D] the enrichment score was inactive: 0.284. With PEACDYGLGGG [GSTO1_Y239] the enrichment score was inactive: 0.719. In the case of YISLIYTNYEA [GSTP1_Y109], the enrichment score is reported as inactive: 3.1.

Each binder was assayed against SHP2 C-SH2 domain wild-type in the same assay as above. Settings: peptide library: pTyr-Var.
For NVDGKYSYLKV [GRM3_Y478_G475D], the enrichment score was inactive: 0.952. For NVDGKYSFLKV [GRM3_Y478_G475D_YF], the enrichment score was inactive: 0.825. For DGKYSYLKVGH [GRM3_Y480_G475D], the enrichment score was inactive: 0.607. DGKFSYLKVGH [GRM3_Y480_G475D_YF] was tested, and the enrichment score was inactive: 0.891. For LTPVKYLLSAT [GSDMC_Y26], the enrichment score was inactive: 1.24. In the case of EKRDAYVSRLN [GSR_Y150], the enrichment score is reported as inactive: 0.643. EKRDAYVSCLN [GSR_Y150_R153C] was tested, and the enrichment score was inactive: 0.796. YFRDGCMPRQY [GSS_Y270_Y270C] was tested, and the enrichment score was inactive: 0.833. For FFRDGCMPRQF [GSS_Y270_Y270C_YF], the enrichment score was inactive: 0.802. In the case of FFRDGHMPRQF [GSS_Y270_Y270H_YF], the enrichment score is reported as inactive: 0.665. SHGQDYLVGNK [GSTA1_Y147] was tested, and the enrichment score was inactive: 0.855. SHGQDYLAGNK [GSTA2_Y147_V149A] was tested, and the enrichment score was inactive: 0.685. For RALLNYIASKY [GSTA3_Y74_I71L], the enrichment score was inactive: 1.16. RAILDYIASKY [GSTA3_Y74_N73D] was tested, and the enrichment score was inactive: 1.25. RAILNYIASKF [GSTA3_Y74_YF] was tested, and the enrichment score was inactive: 0.578. In the case of QNKEDYAGLKE [GSTO1_Y139], the enrichment score is reported as inactive: 0.534. In the case of QNKEDYDGLKE [GSTO1_Y139_A140D], the enrichment score is reported as inactive: 0.438. In the case of PEACDYGLGGG [GSTO1_Y239], the enrichment score is reported as inactive: 0.521. YISLIYTNYEA [GSTP1_Y109] was tested, and the enrichment score was inactive: 3.03.

These binders were tested against SHP2 N-SH2 domain L43F in the same assay as above. Settings: peptide library: pTyr-Var.
NVDGKYSYLKV [GRM3_Y478_G475D] was tested, and the enrichment score was inactive: 0.656. In the case of NVDGKYSFLKV [GRM3_Y478_G475D_YF], the enrichment score is reported as inactive: 0.795. For DGKYSYLKVGH [GRM3_Y480_G475D], the enrichment score was inactive: 0.545. In the case of DGKFSYLKVGH [GRM3_Y480_G475D_YF], the enrichment score is reported as inactive: 0.997. LTPVKYLLSAT [GSDMC_Y26] was tested, and the enrichment score was inactive: 1.11. For EKRDAYVSRLN [GSR_Y150], the enrichment score was inactive: 0.617. For EKRDAYVSCLN [GSR_Y150_R153C], the enrichment score was inactive: 0.527. YFRDGCMPRQY [GSS_Y270_Y270C] was tested, and the enrichment score was inactive: 0.769. For FFRDGCMPRQF [GSS_Y270_Y270C_YF], the enrichment score was inactive: 0.782. FFRDGHMPRQF [GSS_Y270_Y270H_YF] was tested, and the enrichment score was inactive: 0.649. In the case of SHGQDYLVGNK [GSTA1_Y147], the enrichment score is reported as inactive: 0.665. With SHGQDYLAGNK [GSTA2_Y147_V149A] the enrichment score was inactive: 0.526. RALLNYIASKY [GSTA3_Y74_I71L] was tested, and the enrichment score was inactive: 1.39. In the case of RAILDYIASKY [GSTA3_Y74_N73D], the enrichment score is reported as inactive: 1.53. In the case of RAILNYIASKF [GSTA3_Y74_YF], the enrichment score is reported as inactive: 0.734. QNKEDYAGLKE [GSTO1_Y139] was tested, and the enrichment score was inactive: 0.618. QNKEDYDGLKE [GSTO1_Y139_A140D] was tested, and the enrichment score was inactive: 0.542. In the case of PEACDYGLGGG [GSTO1_Y239], the enrichment score is reported as inactive: 0.455. For YISLIYTNYEA [GSTP1_Y109], the enrichment score was active: 4.57.

Each binder was assayed against SHP2 N-SH2 domain T42A in the same assay as above. Settings: peptide library: pTyr-Var.
In the case of NVDGKYSYLKV [GRM3_Y478_G475D], the enrichment score is reported as inactive: 1.21. NVDGKYSFLKV [GRM3_Y478_G475D_YF] was tested, and the enrichment score was inactive: 0.591. With DGKYSYLKVGH [GRM3_Y480_G475D] the enrichment score was inactive: 1.07. With DGKFSYLKVGH [GRM3_Y480_G475D_YF] the enrichment score was inactive: 0.789. With LTPVKYLLSAT [GSDMC_Y26] the enrichment score was inactive: 0.8. EKRDAYVSRLN [GSR_Y150] was tested, and the enrichment score was inactive: 0.661. With EKRDAYVSCLN [GSR_Y150_R153C] the enrichment score was inactive: 0.48. YFRDGCMPRQY [GSS_Y270_Y270C] was tested, and the enrichment score was inactive: 0.661. For FFRDGCMPRQF [GSS_Y270_Y270C_YF], the enrichment score was inactive: 0.722. FFRDGHMPRQF [GSS_Y270_Y270H_YF] was tested, and the enrichment score was inactive: 0.797. SHGQDYLVGNK [GSTA1_Y147] was tested, and the enrichment score was inactive: 0.638. For SHGQDYLAGNK [GSTA2_Y147_V149A], the enrichment score was inactive: 0.599. RALLNYIASKY [GSTA3_Y74_I71L] was tested, and the enrichment score was inactive: 1.15. With RAILDYIASKY [GSTA3_Y74_N73D] the enrichment score was inactive: 1.03. For RAILNYIASKF [GSTA3_Y74_YF], the enrichment score was inactive: 0.674. For QNKEDYAGLKE [GSTO1_Y139], the enrichment score was inactive: 0.645. In the case of QNKEDYDGLKE [GSTO1_Y139_A140D], the enrichment score is reported as inactive: 0.618. With PEACDYGLGGG [GSTO1_Y239] the enrichment score was inactive: 0.938. In the case of YISLIYTNYEA [GSTP1_Y109], the enrichment score is reported as active: 7.74.

These binders were tested against SHP2 N-SH2 domain T52S in the same assay as above. Settings: peptide library: pTyr-Var.
NVDGKYSYLKV [GRM3_Y478_G475D] was tested, and the enrichment score was inactive: 0.749. For NVDGKYSFLKV [GRM3_Y478_G475D_YF], the enrichment score was inactive: 0.73. In the case of DGKYSYLKVGH [GRM3_Y480_G475D], the enrichment score is reported as inactive: 0.474. In the case of DGKFSYLKVGH [GRM3_Y480_G475D_YF], the enrichment score is reported as inactive: 0.803. In the case of LTPVKYLLSAT [GSDMC_Y26], the enrichment score is reported as inactive: 1.15. With EKRDAYVSRLN [GSR_Y150] the enrichment score was inactive: 0.541. In the case of EKRDAYVSCLN [GSR_Y150_R153C], the enrichment score is reported as inactive: 0.565. YFRDGCMPRQY [GSS_Y270_Y270C] was tested, and the enrichment score was inactive: 0.511. In the case of FFRDGCMPRQF [GSS_Y270_Y270C_YF], the enrichment score is reported as inactive: 0.795. In the case of FFRDGHMPRQF [GSS_Y270_Y270H_YF], the enrichment score is reported as inactive: 0.716. With SHGQDYLVGNK [GSTA1_Y147] the enrichment score was inactive: 0.637. SHGQDYLAGNK [GSTA2_Y147_V149A] was tested, and the enrichment score was inactive: 0.64. With RALLNYIASKY [GSTA3_Y74_I71L] the enrichment score was inactive: 1.31. For RAILDYIASKY [GSTA3_Y74_N73D], the enrichment score was inactive: 1.36. With RAILNYIASKF [GSTA3_Y74_YF] the enrichment score was inactive: 0.78. QNKEDYAGLKE [GSTO1_Y139] was tested, and the enrichment score was inactive: 0.495. With QNKEDYDGLKE [GSTO1_Y139_A140D] the enrichment score was inactive: 0.377. In the case of PEACDYGLGGG [GSTO1_Y239], the enrichment score is reported as inactive: 0.715. YISLIYTNYEA [GSTP1_Y109] was tested, and the enrichment score was active: 5.62.

The binders below were run against SHP2 N-SH2 domain wild-type in the same assay as above. Settings: peptide library: pTyr-Var.
For NVDGKYSYLKV [GRM3_Y478_G475D], the enrichment score was inactive: 0.669. For NVDGKYSFLKV [GRM3_Y478_G475D_YF], the enrichment score was inactive: 0.707. For DGKYSYLKVGH [GRM3_Y480_G475D], the enrichment score was inactive: 0.84. With DGKFSYLKVGH [GRM3_Y480_G475D_YF] the enrichment score was inactive: 0.827. LTPVKYLLSAT [GSDMC_Y26] was tested, and the enrichment score was inactive: 0.938. EKRDAYVSRLN [GSR_Y150] was tested, and the enrichment score was inactive: 0.667. With EKRDAYVSCLN [GSR_Y150_R153C] the enrichment score was inactive: 1. In the case of YFRDGCMPRQY [GSS_Y270_Y270C], the enrichment score is reported as inactive: 0.945. FFRDGCMPRQF [GSS_Y270_Y270C_YF] was tested, and the enrichment score was inactive: 1.14. FFRDGHMPRQF [GSS_Y270_Y270H_YF] was tested, and the enrichment score was inactive: 0.841. With SHGQDYLVGNK [GSTA1_Y147] the enrichment score was inactive: 0.898. In the case of SHGQDYLAGNK [GSTA2_Y147_V149A], the enrichment score is reported as inactive: 0.503. With RALLNYIASKY [GSTA3_Y74_I71L] the enrichment score was inactive: 1.34. In the case of RAILDYIASKY [GSTA3_Y74_N73D], the enrichment score is reported as inactive: 1.36. With RAILNYIASKF [GSTA3_Y74_YF] the enrichment score was inactive: 0.692. With QNKEDYAGLKE [GSTO1_Y139] the enrichment score was inactive: 0.637. With QNKEDYDGLKE [GSTO1_Y139_A140D] the enrichment score was inactive: 0.684. In the case of PEACDYGLGGG [GSTO1_Y239], the enrichment score is reported as inactive: 0.92. For YISLIYTNYEA [GSTP1_Y109], the enrichment score was inactive: 2.77.
